B1: LINE1-full (parent)
chain: UACGUAGGUGGUUUUCCCCUGAUAGUGCUAAGGGGGCCUGGAAGUUUGGACUGGGCAGAGCUCAACACAGCGUGGCAAAGUGGCUGUGGCUAGACUGCCUCUCUGGAUUCCUCGUCACUCAGCAGGGCAUCUCUGAGAGAAAUGCC

The source gives no read counts; variants with many changes may rest on few reads.

The variants in this data set derive from B1. The data set is described as follows: self-cleavage, relative activity (ratio to wild type); higher = more cleavage; in vitro, sequencing; the parent is a self-cleaving ribozyme.
For the variant AACGUAGGUGGUUUUCCCCUGAUAGUGCUAAGGGGGCCUGGAAGUUUGGACUGGGCAGAGCUCAACACUGCGUGGCAAAGUGGCUGUGGCUAGACUGCCUCUCUGGACUCCUCGUCACUCAGCAGGGCAUCUCCGAGAGAAAUGCC, the self-cleavage was 0.22.

Turning to AACGUAGGUGGUUUUCCCCUGGUAGCGCUAAGGGGGCCUGGAAGUUUGGACUGGGCAGAGCUCAACACAGCGUGGCAAAGUGGCUGUGGCUAGACUGCCUCUCUGGAUUCCUCGUCACUCAGCAGGGCAUCUCUGAGAGAAAUGCC, the self-cleavage was 2.45.

For the variant AACGUAGGUGGUUUUCCCCUGAUAGUGCUAAGGGGGCCUGGAAGUUUGGACUGGGCAGAGCUCAACACAGCGUGGCAAAGUGGCUGUGGCUAGUCUGCCUCUCUGGAUCCCUCGUCACUCAGCAGGGCAUCUCUGAGAGAAAUGCC, the self-cleavage amounted to 0.51.

Regarding AACGUAGGUGGUCUUCCCCUGAUAGUGCUAAGGGGGCCUGGAAGUUUGGACUGGGCAGAGCACAACACAGCGUGGCAAAGUGGCUGUGGCUAGACUGCCUCUCUGGAUUCCUCGUCACUCAGCAGGGCAUCUCUGAGAGAAAUGCC, the self-cleavage was determined as 0.27.

Regarding AACGUAGGUGGUUUUCCCCUGACAGUGCUAAGGGGGCCUGGAAGUUUGGACUGGGCAGAGCUCAACACAGCGUGGCAAAGUGGCUGUGGCUAGACUGCCCCUCUGGAUUCCUCGUCACACAGCAGGGCAUCUCUGAGAGAAAUGCC, the self-cleavage is 1.62.

Turning to AACGUAGGUGGUUUUCCCCUGAUAGUGCUGAGGGAGCCUGGAAGUUUGGACUGGGCAGAGCUCAACACAGCGUGGCAAAGUGGCUGUGGCUAGACUGCCUCUCUGGAUUCCUCGUCACCCAGCAGGGCAUCUCUGAGAGAAAUGCC, the self-cleavage was found to be 1.24.

Take AACGUAGGUGGCUCUCCCCUGAUAGUGCUAAGGGGGCCUGGGAGUUUGGUCUGGGCAGAGCUCAACACAGCGUGGCAAAGUGGCUGUGGCUAGACUGCCUCUCUGGAUUCCUCGUCACUCAGCAGGGCAUCUCUGAGAGAAAUGCC: the self-cleavage was found to be 1.67.

Consider AACGUAGGUGGUUUUCCCCUGAUAGCGCUAAGGGGGCCUGGAAGUUUGGACUGGGCAGAGCUCAACACAGCGUGGCAAAGUGGCCGUGGCUAGACUGCCUCUCUGGAUUCCUCGUCACUCAGCAGGGCAUCUCUGAGAGAAAUGCC, for which the self-cleavage was determined as 0.61.

Take AACGUAGGUGGUUUUCCCCUGAUAGUGCUAAGGGGGCCUGGAAGUUUGGACUGGGCAGGGCUCAACACAGCGUGGCAAAGUGGCUGUGGCUAGACUGCCUCUCUGGAUUCCUCGUCACUCAGCAGGGCAUCUCUGAGGGAAAUGCC: the self-cleavage is 0.17.

Take AACGUAGGUGGUUUUCCCCUGAUAGUGCUAAGGGGGCCUGGAGGUUUGGACUGGGCAGAGCUCAACACAGCGUGGCAAAGUGGCUGUGGCUAGACUGCCUCUCUGGAUUCCUCGACACUCAGCAGGGCAUCUCUGGGAGAAAUGCC: the self-cleavage stood at 1.45.

With AGCGUAGGUGGUUUUCCCCUGAUAGUGCUAAGGGGGCCUGGAAGUUUGGACUGGGCAGAGCUCAACACAGCGUGGCAAAGUGGCUGUGGCUAGACUGCCUCUCUGGAUUCCUCGUCGCUCAGCAGGGCAUCUCUGAGAGAGAUGCC, the self-cleavage amounted to 1.16.

Consider AACGUAGGUGGUUAUCCCCUGAUAGUGCUAAGGGGGCCUGGAAGUUUGGACUGGGCAGAGCUCAACACAGCGUGGCAAAGUGGCUGUGGCUAGACUGCCUCUCUGGAUUCCUCGUCACUCAGCAGGGCAUCUCUGAGAGAAAUGCU, for which the self-cleavage was determined as 1.79.

For the variant AGCGUAGGUGGUUUUCCCCUGAUAGUGCUAAGGGGGCCUGGAAGUUUGGACUGGGCAGAGCUCAACACAGCGUGGCGAAGCGGCUGUGGCUAGACUGCCUCUCUGGAUUCCUCGUCACUCAGCAGGGCAUCUCUGAGAGAAAUGCC, the self-cleavage is 1.84.

For the variant AACGUAGGUGGUUUUCCCCUGAUAGUGCUAAGGGGGCCUGGAGGUUUGGACUGGGCAGAGCUCAACACAGCGUGGCAAAGUGGCUGUGGCUAGACUGCCUCUCUGGAUUCCUCGUCACUCAGGAGGGCAUCUCCGAGAGAAAUGCC, the self-cleavage amounted to 0.96.

For AACGUAGGUGGUUUUCCCCUGAUAGUGCUAAGGGGGCCUGGAAGUUUGGACUGGGCAGAGCUCAACACAGAGUGGCAAAGUGGCUGUGGCUAGACUGCCUCUCUGGAUUCCUCGUCACUCAGCAGGGCAUCUCUGGGAGAAAUGCC, the self-cleavage is 0.42.

As to AACGUAGGUGGUUUUCCCCUGAUAGUGCUUAGGGGGCCUGGAAGUUUGGGCUGGGCAGAGCUCAACACAGCAUGGCAAAGUGGCUGUGGCUAGACUGCCUCCCUGGAUUCCUCGUCACUCAGCAGGGCAUCUCUGAGAGAAAUGCC, the self-cleavage was found to be 2.3.

In the case of AACGUAGGUGGUUUUCCCCCGAUAGUGCUAAGGGGGCCUGGAAGUUUGGACUGGGCAGAGCUCAACACAGCGUGGCAAAGUGGCUGUGGCUAGACUGCCUCUCAGGAUUCCUCGUCACUCAGCAGGGCAUCUCUGUGAGAAAUGCC, the self-cleavage worked out at 1.51.

Regarding AACGUAGGUGGUUUUCCCCUGAUAGUGCUAAGGGGGCCUGGAAGUUUGGACUGGGCGGAGCUCAACACAGCGUGGCAAAGUGGCUGUGGCUAGACUGCCUCCCUGGAUUCCUCGUCACUCAGCAGGGCAUCUCUGAGAGAAAUGCC, the self-cleavage came to 0.85.

For the variant AACGCAGGUGGUUUUCCCCUGAUAGUGCUAAGGGGGCCUGGAAGUUUGGACUGGGCAGAGCUCAACACAGCGUGGCAAAGUGGCUGUGGCUAGACUGCCUCUCUGGAUUCCUCGUCACUCAGCAGGGCAUCUCUGAGAGAGAUGCC, the self-cleavage worked out at 1.62.

ACCGUAGGUGGUUUUCCCCUGAUAGUGCAAAGGGGGCCUGGAAGUUUGGACUGGGCAGAGCUCAACUCAGCGUGGCAAAGUGGCUGUGGCUGGACUGCCUCUCUGGAUUCCCCGUCACUCAGCAGGGCACCUCUGAGAGAAAUGCC: the self-cleavage worked out at 0.

Consider AGCGUAGGUGGUUCUCCCCUGAUAGUGCUAAGGGGGCCUGGAAGUUUGGACUGGGCAGAGCUCAACACAGCGUGGCAAAGUGGCUGUGGCUAGACUGCCUCUCUGGAUUCCUCGUCACUCAGCAGGGCAUCUCUGAGAGAAGUGCC, for which the self-cleavage was determined as 0.64.

As for AACGUAGGCGGUUUUCCCCUGAUAGUGCUAAGGGGGCCUGGAAGUUUGGUCUGGGCAGGGCUCAACACAGCGUGGCAAAGUGGCUGUGGCUAGACUGCCUCUCUGGAUUCCUCGUCACUCAGCAGGGCAUCUCCGAGAGAAAUGCC, the self-cleavage came out at 0.35.

As for AACGUAGGUGGUUAUCCCCUGAUAGUGCUAAGGGGGCCUGGAAGCUUGGACUGGGCAGAGCUCAACACAGCGUGGCAAAGUGGCUGUGGCUAGACUGCCUCUCUGGAUUCCUCGUCACUCUGCAGGGCAUCUCUGAGAGAAAUGCC, the self-cleavage amounted to 0.21.

For AACGUAGGUGGUUUUCCCCUGAUAGUGCUAAGGGGGCCUGGGAGUCUGGACUGGGCAGAGCUCAACACAGCGUGGCAAAGUGGCUGUGGCUAGACUGCCUCUCUGGAUUCCUCGUCACUCAGCAGGGCAUCUCUGAGAGAAACGCC, the self-cleavage turned out to be 0.65.

Consider AACGUAGGUGGUUUUCCCCUGGUAGUGCUAAGGGGGCCUGGAAGUUUGGACUGGGCAGAGCUCAACACAGCGUGGCAGAGUGGGUGUGGCUAGACUGCCUCUCUGGAUUCCUCGUCACUCAGCAGGGCACCUCUGAGAGAAAUGCC, for which the self-cleavage turned out to be 0.28.

In the case of AACGUAGGAGGUUUUCCCCUGAUAGUGCUAAGGGGGCCUGGAAAUUUGGACUGGGCAGAGCUCAACACAGCGUGGCAAAGUGGCUGUGGCUAGGCUGCCUCUCUGGAAUCCUCGUCACUCAGCAGGGCAUCUCUGAGAGAAAUGCC, the self-cleavage was found to be 0.38.

With AACGUAGGUAGUUUUCCCCUGAUAGUGCUAAGGGGGCCUGGAAGUUCGGACUGGGCAGAGCUCAACACAGCGUGGCAAAGUGGCUGUGGCUAGACUGCCUCUCUGGAUUCCUCGUCACUCAGCAGGGCAUCUCUGAGAGAAAUGCC, the self-cleavage came to 0.49.

For the variant AACGUAGGUGGUUUUCCCCUGAUAGUGCUAAGGGGGCCUGGAAGUUUGGACUGAGCAGAGCUCAACACAGCGAGGCAAAGUGGCUGUGGCUAGACCGCCUCUCUGGAUUCCUCGUCACUCAGCAGGGCAUCUCUGAGAGAAAUGCC, the self-cleavage came to 0.04.

With AACGUAGGUGGUUUUCCCCUGGUAGUGCUAAGGGGGCCUGGAAGUUUGGACUGGGCAGAGCUCAACACAGCGUGGCAAAGUGGCUGUGGCUAGACUGCCUCUCUGGAUUCCUCGUCACUCAGCAGGGCAUCUCAGAGAGAAAUGCC, the self-cleavage is 0.77.

AACGUAGGUGGUUUUCCCCAGAUAGUGCUAAGGGGGCCUGGAAGUUUGGACUGGGCAGAGCUCAACACAGCGUGGCAAAGUGGCUGUGGCUAGACUGCCUCUCUGGAUUCCUCGUCACUCAGCAGGGCAUCUCUGAGAGAGAUGCC: the self-cleavage was found to be 0.69.

In the case of AACGUAGGUGGUUUUCCCCUGAUAGUACUAAGGGGGCCUGGAAGUUUGGACUGGGCAGAGCUCAGCACAGCGUGGCAAAGUGGCUGUGGCUAGACUGCCUCUCUGGAUCCCUCGUCACUCAGCAGGGCAUCUCUGAGAGAAAAGCC, the self-cleavage is 0.

With AACGUAGGUGGUUUUCCCCUGAUGGUGCUAAGGGGGCCUGGAAGCUUGGACUGGGCAGAGCUCAACACAGCGUGGCAAAGUGGCAGUGGCUAGACUGCCUCUCUGGAUUCCUCGUCACUCAGCAGGGCAUCUCUGAGAGAGAUGCC, the self-cleavage was 0.35.

On to AACGUAGGUGGUCUUCCCCUGAUAGUGCUAAGGGGGCCUGGAAGUUAGGACUGGGCAGAGCUCAACACAGCGUGGCAAAGUGGCUGUGGCUAGACUGCCUCUCUGGAUUCCUCGUCACUCAGCAGGGCGUCUCUGAGAGAAAUGCC, for which the self-cleavage worked out at 0.31.

Regarding AACGUAGGCGGUUUUCCCCUGAUAGUGCUAAGGGGGCCUGGAAGUUUGGACUGGGCAGAGCUCAACACAGCGUGGCAAAGUGGCUGUGGCUAGACUGCCUCUCUGGAUUCCUCGUCCCUCAGCAGGGCAUCUCUGAGAGAAAUACC, the self-cleavage amounted to 1.48.

For the variant AACGUGGGUGGUUUUCCCCUGAUAGUACUAAGGGGGCCUGGAAGUUUGGACUGGGCAGAGCUCAACACAGCGUGGCAAAGUGGCUGUGGCUAGACUGCCUCUCUGGAUUCCUCGUCACUCAGCAGGGCAUCUCUGGGAGAAAUGCC, the self-cleavage is 0.98.

As for AACGUAGGUGGUUUUCCCCUGAUAGUGCUAAGGGGGCCUGGAAGUUUGGACUGGGCAGAGCUCGACGCAGCGUGGCAAAGUGGCUGUGGCUAGACUGCCUCUCUGGAUUCCUUGUCACUCAGCAGGGCAUCUCUGAGGGAAAUGCC, the self-cleavage was 0.19.

For AACGUAGGUGGUCUUCCCCUGAUAGUGCUAAGGGGGCCUGGAAGUUUGGACUGGGCGGAGCUCAACACAGCGUGGCAAAAUGGCUGUGGCUAGACUGCCUCUCUGGAUUCCUCGUCACUCAGCAGGGCAUCUCCGAGAGAAAUGCC, the self-cleavage was determined as 0.81.

Turning to AACGUAGGUGGUUUUCCCCUGAUAGUGCUAAGGGGGCCUGGAAGCUUGGACUGGGCAGAGCUCAACACAGCGUGGCAAAGUGGGUGUGGCUAGACUGCCUCUCUGGAUUCCUCGUCACUCAGCAGGGCAUCUCUGAGAGAAAUGCC, the self-cleavage stood at 0.13.

Consider AACGUAGGUGGUUUUCCCCUGAUAGUGCUAAGGUGGCCUGGAAGUUUGGACUGGGCAGAGCUCAACUCAGCGUGGCAAAGUGGCUGUGGCUAGACUGCCUCUCUGGAUUCCUCGUCACUCAGCAGGGCAUCUCUGAGAGGAAUGCC, for which the self-cleavage is 0.31.

The values above are taken from the RNAGym collection of RNA variant scans (doi:10.7554/elife.90254).
